# According to PubChem BioAssay AID493208 (National Center for Advancing Translational Sciences (NCATS), 2011):
# In all, about 44,000 compounds went through this assay and about 340 (0.77%) were called active. Not shown: some 5% with an inconclusive outcome. Calls come from the whole dose curve; as a rule, active = well fitted inhibition curve with a large enough effect; inconclusive = small, poorly fitted or top-dose-only effect; inactive = flat fitted curve, though single readings scatter. This is one part of the list.
# Assay: Acumen qHTS Assay for Inhibitors of the mTORC1 Signaling Pathway in MEF (Tsc2-/-, p53-/-) Cells: Sytravon;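 note: plate controls were DMSO for no effect and rapamycin for full effect; nearly all actives have a fitted effect of over 50% in size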
# Conditions: phospho-rpS6 immunofluorescence/PI, 24 h; series mostly up to 38.3 µM; activity change, negative = inhibition: at the top concentration
# Outline: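 Readout is phospho-S6 Alexa 488 signal normalized to PI per well, reported as % active cells with thresholds set from rapamycin (7.5 nM) and DMSO controls. Cells: Tsc2-/-, p53-/- MEFs, 24 hrs compound at 37 C; PI cell number serves as viability.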
row,SMILES,"activity change, negative = inhibition"
1,Cc1cccc(-c2noc(CN(C(=O)c3ccc(C)c(C)c3)C(C)C)n2)c1,inactive: -1.34%
2,COc1ccc(C)cc1N(C)C(=O)c1sc2nc3n(c(=O)c2c1C)CCCCC3,inactive: 3.34%
3,CCOc1ccc(CCNC(=O)C2=C(C)C(=O)OC23CCC(C)CC3)cc1OCC (configuration not stated),inactive: 2.2%
4,CCCCCn1c(=O)[nH]c2cc(C(=O)NCc3ccc(C)cc3)ccc2c1=O,inactive: 8.63%
5,COc1cccc(NC(=O)CSc2nc(-c3ccccc3)nc3c2Cc2cc(Cl)ccc2O3)c1,inactive: 3.38%
6,Cc1ccc(C(=O)c2oc3ccccc3c2NC(=O)c2nc(S(C)(=O)=O)ncc2Cl)cc1F,inactive: 0.607%
7,CCOC(=O)c1cccc(NC(=O)CC(c2ccc(F)cc2)N2Cc3ccccc3C2=O)c1 (configuration not stated),inactive: -4.83%
8,O=S(=O)(c1ccccc1)c1nc(-c2ccc(F)cc2)oc1N1CCOCC1,inactive: -0.237%
9,CCOc1cc(C#N)c(NC(=O)c2ccc(OC)c(S(=O)(=O)N3CCCC3)c2)cc1OCC,inactive: -3.31%
10,CCCOc1ccc(OC(=O)c2sc3ncn(Cc4cccc(F)c4)c(=O)c3c2C)cc1,inactive: -0.738%
11,COc1ccccc1NC(=O)N(Cc1ccco1)C1CCN(C(C)=O)CC1,inactive: 0.065%
12,Cc1nc2cc(-c3cccc(F)c3)nn2c(C)c1CCC(=O)N1CCN(c2ccc(F)cc2)CC1,inactive: 2.45%
13,O=C(Cn1nnc2sc3c(c2c1=O)CCCC3)Nc1ccc(F)c(Cl)c1,inactive: 11.5%
14,COc1cccc(NC(CNS(=O)(=O)c2ccc(C)cc2)c2ccccc2)c1 (configuration not stated),inactive: -2.82%
15,CCN1C(=O)c2ccccc2Sc2ccc(NC(=O)c3ccc(C)c(F)c3)cc21,inactive: -3.54%
16,Cc1ccccc1CNC(=O)CCCn1nc(C)c2sc3ccccc3c2c1=O,inactive: -11.1%
17,CCc1c(C)nc2nncn2c1Nc1ccc(C)c(F)c1,inactive: -10.8%
18,Cc1cc(-c2ccc(C)c(S(=O)(=O)NCc3ccc(Cl)cc3)c2)on1,inactive: -2.03%
19,CCCS(=O)(=O)NCCc1csc2nc(-c3ccc(OC)cc3)nn12,inactive: 0.199%
20,COc1ccccc1N(CC(=O)NCCSCc1ccc(Cl)cc1)S(C)(=O)=O,inactive: -2.42%
21,CN(Cc1ccccc1)c1ncnc2c1nc1n2CCCC1,inactive: -0.265%

row,SMILES,"activity change, negative = inhibition"
1,CCCCOc1cccc(C(=O)Nc2cccc3ccc(C)nc23)c1,inactive: -1.59%
2,COc1cc(OC)cc(C(=O)Nc2ccc3nc(N4CCC(C)CC4)cc(C)c3c2)c1,inactive: -2.35%
3,Cc1ccc(CS(=O)(=O)Cc2ccc(C(=O)NCCc3ccc(Cl)cc3)o2)cc1,inactive: 2.57%
4,Cc1cc(C)c2c(=O)cc(C(=O)Nc3ccccc3Cl)oc2c1,inactive: 0.711%
5,Cc1ccc2c(CC(=O)Nc3cc(C(F)(F)F)ccc3Cl)coc2c1C,inactive: 4.34%
6,CCC12CN3CC(CC)(CN(C1)C3c1ccc(OCc3ccccc3)cc1)C2=O (configuration not stated),inactive: 4.66%
7,Cc1ccc2oc(=O)n(CCNC(=O)Nc3ccccc3Cl)c2c1,inactive: -8.25%
8,COc1ccc(C2CC(=O)Nc3c2c(=O)nc2c(C)cccn32)cc1 (configuration not stated),inactive: 0.707%
9,CCOC(=O)c1c(C)[nH]c(C)c1S(=O)(=O)N1CCC(C(=O)Nc2ccccn2)CC1,inactive: 0.634%
10,O=c1oc2ccc(Br)cc2cc1-c1nc(-c2ccccc2)no1,inactive: 0%
11,CCC(C)NC(=O)C1CCC(CNS(=O)(=O)c2cccc3nsnc23)CC1 (configuration not stated),inactive: 0.682%
12,CCS(=O)(=O)N1CC(=O)N(c2ccc(C)c(C)c2)C(C)(C(=O)NC2CCCCC2)C1 (configuration not stated),inactive: 0.165%
13,CCc1ccc(-c2nc3c(c(SCc4ccc(F)cc4)n2)Cc2c(CO)cnc(C)c2O3)cc1,inactive: -0.283%
14,COc1ccc(N2CCN(C(c3ccccc3)c3nnc(-c4ccccc4Cl)o3)CC2)cc1 (configuration not stated),inactive: -8.83%
15,Cc1cccc(NC(=O)CSc2nc3c(oc4ccccc43)c(=O)n2C(C)C)c1,inactive: -9.45%
16,COc1cccc(CNC(=O)Cn2ncc3c4ccccc4n(C)c3c2=O)c1,inactive: 2.64%
17,COCCNC(=O)CCCn1c(SCC(=O)Nc2cccc(C)c2)nc2c(sc3ccccc32)c1=O,inactive: -11.6%
18,CC1=C(C(=O)NCCc2ccc(Cl)cc2)C2(CCCCC2)OC1=O,inactive: -19.7%
19,COc1ccc(C(=O)c2oc3ccccc3c2NC(=O)COc2c(C)cc(C)cc2C)cc1,inactive: -4.83%
20,COc1cccc(CNC(=O)c2c(O)nc3ccccn3c2=O)c1,inactive: 0.266%
21,CCOc1ccc(N2CC(c3nc4ccccc4n3CC(C)C)CC2=O)cc1 (configuration not stated),inactive: -16.9%

row,SMILES,"activity change, negative = inhibition"
1,COc1cc(-c2noc(-c3ccc(NCCc4ccccc4)c([N+](=O)[O-])c3)n2)cc(OC)c1OC,inactive: -6.99%
2,COc1cc(NC(=O)CCNS(=O)(=O)c2ccc3c(c2)CCN3C(=O)C2CC2)cc(OC)c1,inactive: 3.49%
3,COCC(=O)N1CCc2cc(OC)c(OC)cc2C1COc1ccc2c(C)cc(=O)oc2c1 (configuration not stated),inactive: 2.51%
4,Cc1ccc(C)c(N2CCN(C(=O)c3ccc4c(Cl)c5c(nc4c3)CCCC5)CC2)c1,inactive: -9.61%
5,CCc1ccccc1N1CC(c2nc3ccccc3n2Cc2cccc(C)c2)CC1=O (configuration not stated),inactive: 0.235%
6,O=C(Nc1sc2c(c1C(=O)NCc1ccccc1)CCCC2)c1cc(=O)c2cc(Cl)ccc2o1,inactive: -6.61%
7,N#Cc1ccccc1Cn1nnc2c(=O)[nH]c(C3CCCN(S(=O)(=O)c4ccc(F)cc4)C3)nc21 (configuration not stated),inactive: -13.1%
8,O=C(Nc1nc2nc(-c3ccccc3)cc(=O)n2[nH]1)c1ccc(F)cc1,inactive: 5.65%
9,CCOc1ccc(S(=O)(=O)NCCc2sc(-c3ccc(C)cc3)nc2C)cc1,inactive: -11%
10,CCOc1ccccc1N1CC(c2nc3ccccc3n2CCCOc2ccccc2OC)CC1=O (configuration not stated),inactive: -12.8%
11,COc1cccc(CNC(=O)Cn2ccc3cc(S(=O)(=O)N4CCCC4)ccc32)c1,inactive: -16.2%
12,O=C(NCc1ccccc1)C1CCC(CNS(=O)(=O)c2ccc(Br)s2)CC1 (configuration not stated),inactive: 0.389%
13,CC1CCc2nn(CC(=O)Nc3cccc(C(F)(F)F)c3)c(=O)cc2C1 (configuration not stated),inactive: 3.56%
14,COc1cc(NC(=O)Cn2c(=O)n(C(C)C)c(=O)c3oc4ccccc4c32)cc(OC)c1,inactive: 1.64%
15,O=C(Nc1cccnc1Cl)c1cc(-c2ccc(Cl)cc2)on1,inactive: -2.32%
16,CCc1ccc(NC(=O)Cn2nnc(C(=O)NCc3ccco3)c2N)cc1,inactive: -0.938%
17,Cc1ccccc1C(=O)Nc1nnc(SCc2cc(=O)c3c(C)ccc(C)c3[nH]2)s1,inactive: 0%
18,CC1CCN(S(=O)(=O)c2cc(C(=O)NCc3ccc(F)cc3)n(C)c2)CC1,inactive: -0.355%
19,COc1cccc(COC(=O)c2ccc(-c3nnn(Cc4ccccc4)n3)cc2)c1,inactive: -3.63%
20,O=C1C(c2ccc(F)cc2)N(CCc2ccccc2)C(=O)CN1C1CCCCC1 (configuration not stated),inactive: -5.84%
